Test results reported in PubChem BioAssay AID686979 (National Center for Advancing Translational Sciences (NCATS), 2013).
Screen size: about 420,000 compounds; about 50,000 (12%) were called active. This list was built around the results that the source calls inconclusive (neither active nor inactive); the mix of calls is not that of the screen. Calls follow the shape of the dose curve; as a rule, active = well fitted inhibition curve with a large enough effect; inconclusive = small, poorly fitted or top-dose-only effect; inactive = flat fitted curve, though single readings scatter. No potency is given beside an inconclusive call; the fits are too rough.

Assay: qHTS for Inhibitors of human tyrosyl-DNA phosphodiesterase 1 (TDP1): qHTS in cells in presence of CPT; also: nearly all actives have a fitted effect of over 55% in size
Settings: chicken DT40 Tdp1-/-;hTDP1 cells + 20 nM CPT, ATP luminescence, 48 h; activity change, negative = growth inhibition: at 46.2 µM (top of the series) unless noted
Procedure, shortened: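 Chicken DT40 Tdp1-/- cells complemented with human TDP1, 400 cells/well, exposed to compounds plus 20 nM camptothecin for at least 48 h at 37 C; viability read as ATP content by CellTiter-Glo luminescence.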
% is scaled to controls: 0 for no effect and ±100 for the full control effect; potency is read from the fitted curve at half-maximal effect; tags tell the direction and shape of the fitted curve.

Row | SMILES | Potency | activity change, negative = growth inhibition
1 | CN(C)CCn1c(NCc2ccc3c(c2)OCO3)nc2ccccc21 | inconclusive [inhibitor, single point] | 
2 | CCCCCCOC(=O)/C=C/c1c(C)[nH]c(=O)[nH]c1=O | inconclusive [inhibitor, partial curve] | 
3 | CN(C(=O)COC(=O)/C=C/c1ccc2ccccc2n1)C1CCS(=O)(=O)C1 (stereo unspecified) | inconclusive [inhibitor, single point] | 
4 | Cc1nc(-c2ccc(Cl)cc2)sc1C(=O)NN |  | inactive: -22.1%
5 | O=C(N/N=C/c1ccco1)c1cc(-c2ccc(Cl)cc2)n[nH]1 |  | inactive: 10.1%
6 | O=[N+]([O-])c1ccccc1/C=C/CN1CCN(Cc2ccc3c(c2)OCO3)CC1 |  | inactive: -11.5%
7 | COC(=O)[C@]12CCCCC=C1N(CCC1=CCCCC1)C(=O)[C@H](CC(=O)N1CCCC1)C2 | inconclusive [inhibitor, single point] | 
8 | CC(C)C(=O)Nc1cccc(NC(=O)c2cc3ccccc3o2)c1 | inconclusive [inhibitor, partial curve] | 
9 | CCO[C@@H]1OC(C(=O)NCc2nc3ccccc3[nH]2)=C[C@H](c2ccc(C(F)(F)F)cc2)[C@H]1CCCO | inconclusive [inhibitor, single point] | 
10 | Cc1ccc(C)c(NC(=S)N(Cc2cccc(Br)c2)CC2CCC(C(=O)O)CC2)c1 (stereo unspecified) |  | inactive: -12%
11 | C=CCOc1ccc2nnc(C)n2n1 |  | inactive: 3.01%
12 | CC(=O)Nc1ccc(Nc2ncnc3c2cnn3C)cc1 | active: 16.4 µM | 
13 | CN(C)c1ccc(-c2cc(Nc3ccc(F)cc3)ncn2)cc1 | inconclusive [inhibitor, single point] | 
14 | Cc1cc(C)nc(Nc2nc(C(N)c3ccccc3)cs2)n1 (stereo unspecified) | inconclusive [inhibitor, single point] | 
15 | CCOc1ccccc1CNc1ccc(O)cc1 | active: 16.4 µM | 
16 | O=C(Nc1cccc(Cl)c1)N1CCc2ccccc2C1 | inconclusive [inhibitor, single point] | 
17 | CCC(Sc1ncnc2c1nnn2-c1ccc(F)cc1)C(=O)OC (stereo unspecified) |  | inconclusive: -30.1% [inhibitor]
18 | O=C(Cc1ccc(F)cc1)NC1CCCCCC1 | inconclusive [inhibitor, single point] | 
19 | CCOC(=O)CSc1nc(N)c(C(=O)Nc2ccc(N(C)C)cc2)s1 | inconclusive [inhibitor, partial curve] | 
20 | Cc1cc(C)c(C2C(C#N)=C(N)Oc3n[nH]c(C)c32)cc1CN1CCCC1 (stereo unspecified) |  | inactive: -25.7%
21 | S=C(NCc1ccccc1)Nc1cccc(Cl)c1 | inconclusive [inhibitor, single point] | 
22 | Cc1ccc(C)c(OCc2nnc(N)s2)c1 |  | inactive: -20.9%
23 | Cc1ccc(NC(=O)Nc2ccccc2CC[N+](=O)[O-])cc1 |  | inactive: 3.8%
24 | CCCN(CCC)C(=O)Cn1c(=O)n(CCCCCC(=O)NCc2ccc3c(c2)OCO3)c(=O)c2sccc21 | inconclusive [inhibitor, single point] | 

Row | SMILES | Potency | activity change, negative = growth inhibition
25 | O=C(NC1CCCCC1)c1nc(C2CCNCC2)oc1-c1ccccc1 | inconclusive [inhibitor, single point] | 
26 | CCOc1ccccc1CNC(=O)c1oc2c(c1C)-c1[nH]ncc1CC2 | active: 16.4 µM | 
27 | O=C(Nc1ccc(Oc2ccc3ccccc3c2)cc1)c1ccco1 | inconclusive [inhibitor, partial curve] | 
28 | Cc1ccc(C(=O)c2c3ccc(N)cc3nn2CCC(N)=O)cc1 |  | inactive: 1.59%
29 | Oc1[nH]c2ccc(Br)cc2c1N=NC(=S)NCC1CCCO1 (stereo unspecified) | inconclusive [inhibitor, single point] | 
30 | COc1ccccc1N1C(=O)c2ccc(C(=O)Nc3ccc(F)cc3)cc2C1=O |  | inactive: 1.49%
31 | Cc1ccc(NC(=O)CN(C)C(=O)CCSc2ccc(F)cc2)cc1 | inconclusive [inhibitor, partial curve] | 
32 | COc1ccccc1NC(=O)Nc1cc(NC(=O)Nc2ccccc2OC)c(C)nc1C | inconclusive [inhibitor, single point] | 
33 | Cc1csc2c(N3CCN(C(=S)Nc4ccc(F)cc4F)CC3)ncnc12 | inconclusive [inhibitor, single point] | 
34 | COc1cc(SC)ccc1C(=O)Nc1cc(C)ccn1 | inconclusive [inhibitor, single point] | 
35 | COc1ccccc1-c1noc(CCCC(=O)Nc2cccc(C(F)(F)F)c2)n1 | inconclusive [inhibitor, single point] | 
36 | O=C(c1[nH]c(C(F)(F)F)nc1-c1ccccc1)N1CCc2ccccc2C1 |  | inactive: 0.765%
37 | Cc1ccc(C)n1-c1nnc(N2CCCC(C(=O)Nc3ccccc3Br)C2)s1 (stereo unspecified) | inconclusive [inhibitor, partial curve, poor fit] | 
38 | CCOc1ccc(N2CC(C(=O)Nc3ccccc3C(=O)N3CCOCC3)CC2=O)cc1 (stereo unspecified) |  | inactive: -1.25%
39 | Cc1cc(C)cc(C(=O)NC(CC(N)=O)c2ccc(N3CCCCCC3)c([N+](=O)[O-])c2)c1 (stereo unspecified) |  | inactive: -21.9%
40 | O=C(CNC(=O)c1ccco1)Nc1ccc(F)c(Cl)c1 |  | inactive: 7.32%
41 | CCCN(CC(=O)Nc1ccccc1C)C(=O)CCNC(=O)c1ccccc1Cl |  | inactive: 6.56%
42 | COc1cc(OC)cc(C(=O)NCCS(=O)(=O)N2CCN(Cc3ccccc3)CC2)c1 | inconclusive [inhibitor, single point] | 
43 | O=C(Nc1ccccc1C(=O)NC(Cc1ccccc1)C(=O)NC1CCCCCC1)c1ccccc1 (stereo unspecified) | inconclusive [inhibitor, single point] | 
44 | Nc1ncccc1OCc1ccc(Cl)c(Cl)c1 | inconclusive [inhibitor, single point] | 
45 | C=CCNc1sc(C(=O)c2ccccc2)c(N)c1C#N | inconclusive [inhibitor, single point] | 
46 | O=C(O)C1CCCCC1C(=O)Nc1cccc2ccccc12 (stereo unspecified) | active: 16.4 µM | 
47 | CC1CCN(C(=O)CSc2nc(N)c3c4c(sc3n2)CN(C)CC4)CC1 | inconclusive [inhibitor, single point] | 
48 | O=C1CC(N2CCC(O)(c3ccc(Br)cc3)CC2)C(=O)N1c1ccc(Cl)cc1 (stereo unspecified) | inconclusive [inhibitor, single point] | 

Row | SMILES | Potency | activity change, negative = growth inhibition
49 | O=C(CN1C(=O)C2(SCC(=O)N2c2cccc(Cl)c2)c2ccccc21)NCc1ccccc1 (stereo unspecified) | inconclusive [inhibitor, single point] | 
50 | COc1cccc(C(=O)n2c(SC)nc3cc4c(cc32)OCCO4)c1 | inconclusive [inhibitor, single point] | 
51 | CC(C)(C)c1ccc(/C=C2\SC(=O)N(CCNC(=O)c3cccc(S(=O)(=O)N4CCOCC4)c3)C2=O)cc1 | active: 8.2 µM | 
52 | CC1CCCC(NC(=O)COC(=O)/C=C/c2ccc([N+](=O)[O-])cc2)C1C (stereo unspecified) | inconclusive [inhibitor, single point] | 
53 | CC(C)(C)c1ccc(OCC(=O)NCC2(N3CCOCC3)CCCCC2)cc1 | active: 13 µM | 
54 | Cc1ccc(Cn2ccc(NC(=O)CCSc3nc(-c4ccco4)cc(C(F)(F)F)n3)n2)cc1 | inconclusive [inhibitor, single point] | 
55 | COc1c(C)cc(C(=O)C2CCCN(C(=O)c3cc(C)on3)C2)cc1C (stereo unspecified) | inconclusive [inhibitor, single point] | 
56 | COc1ccc(OC)c(C(=O)CCCC(=O)c2cc(OC)ccc2OC)c1 | inconclusive [inhibitor, partial curve] | 
57 | COc1cnc(-c2ccccc2)nc1Oc1ccccc1C | inconclusive [inhibitor, single point] | 
58 | Cc1cc(Cl)ccc1N(CC(=O)NCCSCc1ccco1)S(C)(=O)=O | inconclusive [inhibitor, single point] | 
59 | COc1ccc(-c2cn3nc(N4CCC(C(=O)Nc5cc(Cl)ccc5C)CC4)sc3n2)cc1 | inconclusive [inhibitor, single point] | 
60 | CCCCNc1nc(Cl)nc(Nc2ccc(C)cc2)n1 |  | inactive: -13.1%
61 | CC1CCCC(NC(=O)COC(=O)c2cc3ccccc3oc2=O)C1C (stereo unspecified) | inconclusive [inhibitor, single point] | 
62 | COc1ccc(C2C(C#N)=C(N)Oc3c2oc(CO)cc3=O)cc1 (stereo unspecified) |  | inactive: -13.1%
63 | O=C(Nc1cccc(Cl)c1)c1cc2c(=O)n3ccccc3nc2s1 |  | inactive: -8.24%
64 | CC(C)CC(NS(=O)(=O)OCC(Cl)(Cl)Cl)c1ccccc1 (stereo unspecified) | inconclusive [inhibitor, single point] | 
65 | COc1cc(C(=O)N/N=C/c2sc(=O)n(-c3ccccc3)c2Cl)cc(OC)c1OC | inconclusive [inhibitor, single point] | 
66 | COc1ccc(N(CC(=O)NC2CCCCC2)C(=O)CNC(=O)c2ccco2)cc1OC |  | inactive: -1.46%
67 | CCCS(=O)(=O)N1CCN=C1SCc1ccc(C)cc1 | inconclusive [inhibitor, single point] | 
68 | COc1ccccc1N1CCN(C2CCCN(C(=O)c3cccc(-c4ccco4)c3)C2)CC1 (stereo unspecified) | inconclusive [inhibitor, single point] | 
69 | Cc1ccc(NC(=O)c2cc3ccccn3n2)cc1F | inconclusive [inhibitor, partial curve] | 
70 | CCCCOC(=O)c1ccc(NC(=S)NC(=O)c2ccco2)cc1 | inconclusive [inhibitor, partial curve, poor fit] | 
71 | N#Cc1cc(C#N)c(N2CCN(c3ccccn3)CC2)nc1N | inconclusive [inhibitor, partial curve] | 
